# Laboratory results as given in the supplement of paper PMC8728848.
# The list shows a part of the results.
# What was measured:
# Assay in all cases: glycan array binding signal (z-score within array); higher = stronger binding
# Conditions in all cases: glycan notation: IUPAC condensed, linker removed
# [1] = molecular target: GalNAc3S(b1-4)[Fuc(a1-3)]GlcNAc
# Outline: (§1)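 Columns mapping to the same glycan were averaged after glycan names were converted to IUPAC-condensed notation. The data come from 3228 arrays in the Consortium for Functional Glycomics database, limited to those with an available protein sequence. Binding is reported as a within-array Z-score averaged across arrays of one protein sequence and across linkers.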
# GalNAc4S6S(b1-4)GlcNAc = molecular target: GalNAc4S6S(b1-4)GlcNAc
# Outline: as §1
# GalNAc6S(b1-4)GlcNAc = molecular target: GalNAc6S(b1-4)GlcNAc
# Outline: as §1
# Glc(a1-4)Glc = molecular target: Glc(a1-4)Glc
# Outline: as §1
# [2] = molecular target: Glc(a1-4)Glc(a1-4)Glc(a1-4)Glc
# Outline: as §1
# Glc(a1-6)Glc(a1-6)Glc = molecular target: Glc(a1-6)Glc(a1-6)Glc
# Outline: as §1
# [3] = molecular target: Glc(a1-6)Glc(a1-6)Glc(a1-6)Glc
# Outline: as §1
# Glc(b1-4)Glc = molecular target: Glc(b1-4)Glc
# Outline: as §1
# Glc(b1-6)Glc = molecular target: Glc(b1-6)Glc
# Outline: as §1
# GlcA(b1-3)Gal = molecular target: GlcA(b1-3)Gal
# Outline: as §1
# GlcA(b1-3)GlcNAc = molecular target: GlcA(b1-3)GlcNAc
# Outline: as §1
# GlcA(b1-6)Gal = molecular target: GlcA(b1-6)Gal
# Outline: as §1
# [4] = molecular target: GlcA3S(b1-3)Gal(b1-4)GlcNAc(b1-2)Man
# Outline: as §1
# [5] = molecular target: GlcA3S(b1-3)Gal(b1-4)GlcNAc(b1-3)Gal(b1-4)Glc
# Outline: as §1
# [6] = molecular target: GlcNAc(a1-3)Gal(b1-4)GlcNAc
# Outline: as §1
# [7] = molecular target: GlcNAc(a1-4)Gal(b1-3)GlcNAc
# Outline: as §1
# [8] = molecular target: GlcNAc(a1-4)Gal(b1-4)GalNAc
# Outline: as §1
# [9] = molecular target: GlcNAc(a1-4)Gal(b1-4)GlcNAc
# Outline: as §1
# [10] = molecular target: GlcNAc(a1-4)Gal(b1-4)GlcNAc(b1-3)Gal(b1-4)Glc
# Outline: as §1
# [11] = molecular target: GlcNAc(a1-4)Gal(b1-4)GlcNAc(b1-3)Gal(b1-4)GlcNAc
# Outline: as §1
# [12] = molecular target: GlcNAc(a1-4)Gal(b1-4)GlcNAc(b1-3)Gal(b1-4)GlcNAc(b1-3)Gal(b1-4)GlcNAc
# Outline: as §1
# [13] = molecular target: GlcNAc(a1-4)Gal(b1-4)GlcNAc(b1-3)Gal(b1-4)[Fuc(a1-3)]GlcNAc(b1-3)Gal(b1-4)[Fuc(a1-3)]GlcNAc
# Outline: as §1
# [14] = molecular target: GlcNAc(a1-6)Gal(b1-4)GlcNAc
# Outline: as §1
# [15] = molecular target: GlcNAc(b1-2)Gal(b1-3)GalNAc
# Outline: as §1
# [16] = molecular target: GlcNAc(b1-2)Man(a1-3)[GlcNAc(b1-2)Man(a1-6)]Man(b1-4)GlcNAc(b1-4)GlcNAc
# Outline: as §1
# [17] = molecular target: GlcNAc(b1-2)Man(a1-3)[GlcNAc(b1-2)Man(a1-6)]Man(b1-4)GlcNAc(b1-4)[Fuc(a1-6)]GlcNAc
# Outline: as §1
# [18] = molecular target: GlcNAc(b1-2)Man(a1-3)[GlcNAc(b1-4)][GlcNAc(b1-2)Man(a1-6)]Man(b1-4)GlcNAc(b1-4)GlcNAc
# Outline: as §1
# [19] = molecular target: GlcNAc(b1-2)Man(a1-3)[GlcNAc(b1-4)][GlcNAc(b1-2)Man(a1-6)]Man(b1-4)GlcNAc(b1-4)[Fuc(a1-6)]GlcNAc
# Outline: as §1
# [20] = molecular target: GlcNAc(b1-2)[GlcNAc(b1-4)]Man(a1-3)[GlcNAc(b1-2)Man(a1-6)]Man(b1-4)GlcNAc(b1-4)GlcNAc
# Outline: as §1
# [21] = molecular target: GlcNAc(b1-2)[GlcNAc(b1-4)]Man(a1-3)[GlcNAc(b1-4)][GlcNAc(b1-2)Man(a1-6)]Man(b1-4)GlcNAc(b1-4)GlcNAc
# Outline: as §1
# [22] = molecular target: GlcNAc(b1-2)[GlcNAc(b1-4)]Man(a1-3)[GlcNAc(b1-4)][GlcNAc(b1-2)[GlcNAc(b1-6)]Man(a1-6)]Man(b1-4)GlcNAc(b1-4)GlcNAc
# Outline: as §1
# [23] = molecular target: GlcNAc(b1-2)[GlcNAc(b1-4)]Man(a1-3)[GlcNAc(b1-4)][GlcNAc(b1-2)[GlcNAc(b1-6)]Man(a1-6)]Man(b1-4)GlcNAc(b1-4)[Fuc(a1-6)]GlcNAc
# Outline: as §1
# [24] = molecular target: GlcNAc(b1-2)[GlcNAc(b1-6)]Man(a1-6)[GlcNAc(b1-2)Man(a1-3)]Man(b1-4)GlcNAc(b1-4)GlcNAc
# Outline: as §1
# [25] = molecular target: GlcNAc(b1-2)[GlcNAc(b1-6)]Man(a1-6)[GlcNAc(b1-2)Man(a1-3)]Man(b1-4)GlcNAc(b1-4)[Fuc(a1-6)]GlcNAc
# Outline: as §1
# [26] = molecular target: GlcNAc(b1-2)[GlcNAc(b1-6)]Man(a1-6)[GlcNAc(b1-4)][GlcNAc(b1-2)Man(a1-3)]Man(b1-4)GlcNAc(b1-4)GlcNAc
# Outline: as §1
# GlcNAc(b1-3)Fuc = molecular target: GlcNAc(b1-3)Fuc
# Outline: as §1
# GlcNAc(b1-3)Gal = molecular target: GlcNAc(b1-3)Gal
# Outline: as §1
# [27] = molecular target: GlcNAc(b1-3)Gal(b1-3)GalNAc
# Outline: as §1
binder,measurement,setting,value
Na-CTL-1 (Necator americanus) (protein) MQRSFLLLLVVLAGAWAVNTTIPLKLMGGFTPMKYQCVGRVSDIWADVLFLIESSDMITKSGFRQVIAFITATTKKMTIGQDEKQTRVGFITYGEEAKLIYDLDHWRSTEKLSDLVQKIPYVKSSGTNIAAAIALANKVFNSPTHRPNVPKVMVIVANGLKKGSQNPIPVATAFKDFGGIIITIEYTQYDNIQVPILKKIASEGYNIRSNDEDFSVRTLTNMLLQANCFCPDHYVPFRVNNPEFGCFVTAKIPSMWRDAAEMCRAVEEGKLVKVENEEKAAFIMKLVGPKKEAWIGLRYYGNKFQWTDGTKLNADDFNLWPEDIKELNGPHCVSMYQDQKDKKYYWRAGKCLEDMRYVCEVQPCSASNYCSEPVFMYRQKHRALLPAPPPPPN,glycan array binding signal (z-score),[1],-0.516
same,glycan array binding signal (z-score),GalNAc4S6S(b1-4)GlcNAc,-0.341
same,glycan array binding signal (z-score),GalNAc6S(b1-4)GlcNAc,-0.43
same,glycan array binding signal (z-score),Glc(a1-4)Glc,-0.637
same,glycan array binding signal (z-score),[2],-0.045
same,glycan array binding signal (z-score),Glc(a1-6)Glc(a1-6)Glc,-0.486
same,glycan array binding signal (z-score),[3],-0.131
same,glycan array binding signal (z-score),Glc(b1-4)Glc,-0.001
same,glycan array binding signal (z-score),Glc(b1-6)Glc,-0.292
same,glycan array binding signal (z-score),GlcA(b1-3)Gal,0.144
same,glycan array binding signal (z-score),GlcA(b1-3)GlcNAc,0.371
same,glycan array binding signal (z-score),GlcA(b1-6)Gal,-0.043
same,glycan array binding signal (z-score),[4],0.146
same,glycan array binding signal (z-score),[5],1.18
same,glycan array binding signal (z-score),[6],-0.386
same,glycan array binding signal (z-score),[7],-0.246
same,glycan array binding signal (z-score),[8],0.127
same,glycan array binding signal (z-score),[9],-0.192
same,glycan array binding signal (z-score),[10],-0.616
same,glycan array binding signal (z-score),[11],-0.456
same,glycan array binding signal (z-score),[12],-0.269
same,glycan array binding signal (z-score),[13],0.608
same,glycan array binding signal (z-score),[14],-0.383
same,glycan array binding signal (z-score),[15],0.662
same,glycan array binding signal (z-score),[16],-0.41
same,glycan array binding signal (z-score),[17],0.087
same,glycan array binding signal (z-score),[18],-0.557
same,glycan array binding signal (z-score),[19],-0.413
same,glycan array binding signal (z-score),[20],-0.655
same,glycan array binding signal (z-score),[21],-0.277
same,glycan array binding signal (z-score),[22],0.3
same,glycan array binding signal (z-score),[23],-0.111
same,glycan array binding signal (z-score),[24],-0.357
same,glycan array binding signal (z-score),[25],-0.145
same,glycan array binding signal (z-score),[26],-0.439
same,glycan array binding signal (z-score),GlcNAc(b1-3)Fuc,-0.513
same,glycan array binding signal (z-score),GlcNAc(b1-3)Gal,0.28
same,glycan array binding signal (z-score),[27],-0.105
